In article PMC3589417:
No constants are given. Whether binding was seen depends on the method and setting. In cells and extracts the contact can be indirect. Some entries that bind do so weakly or less than the wild type. For part of these data: Sequences can lack the tags named with a protein.

Amino acid sequences for entries named in this document (tags omitted).
UniProt Q9UBN7: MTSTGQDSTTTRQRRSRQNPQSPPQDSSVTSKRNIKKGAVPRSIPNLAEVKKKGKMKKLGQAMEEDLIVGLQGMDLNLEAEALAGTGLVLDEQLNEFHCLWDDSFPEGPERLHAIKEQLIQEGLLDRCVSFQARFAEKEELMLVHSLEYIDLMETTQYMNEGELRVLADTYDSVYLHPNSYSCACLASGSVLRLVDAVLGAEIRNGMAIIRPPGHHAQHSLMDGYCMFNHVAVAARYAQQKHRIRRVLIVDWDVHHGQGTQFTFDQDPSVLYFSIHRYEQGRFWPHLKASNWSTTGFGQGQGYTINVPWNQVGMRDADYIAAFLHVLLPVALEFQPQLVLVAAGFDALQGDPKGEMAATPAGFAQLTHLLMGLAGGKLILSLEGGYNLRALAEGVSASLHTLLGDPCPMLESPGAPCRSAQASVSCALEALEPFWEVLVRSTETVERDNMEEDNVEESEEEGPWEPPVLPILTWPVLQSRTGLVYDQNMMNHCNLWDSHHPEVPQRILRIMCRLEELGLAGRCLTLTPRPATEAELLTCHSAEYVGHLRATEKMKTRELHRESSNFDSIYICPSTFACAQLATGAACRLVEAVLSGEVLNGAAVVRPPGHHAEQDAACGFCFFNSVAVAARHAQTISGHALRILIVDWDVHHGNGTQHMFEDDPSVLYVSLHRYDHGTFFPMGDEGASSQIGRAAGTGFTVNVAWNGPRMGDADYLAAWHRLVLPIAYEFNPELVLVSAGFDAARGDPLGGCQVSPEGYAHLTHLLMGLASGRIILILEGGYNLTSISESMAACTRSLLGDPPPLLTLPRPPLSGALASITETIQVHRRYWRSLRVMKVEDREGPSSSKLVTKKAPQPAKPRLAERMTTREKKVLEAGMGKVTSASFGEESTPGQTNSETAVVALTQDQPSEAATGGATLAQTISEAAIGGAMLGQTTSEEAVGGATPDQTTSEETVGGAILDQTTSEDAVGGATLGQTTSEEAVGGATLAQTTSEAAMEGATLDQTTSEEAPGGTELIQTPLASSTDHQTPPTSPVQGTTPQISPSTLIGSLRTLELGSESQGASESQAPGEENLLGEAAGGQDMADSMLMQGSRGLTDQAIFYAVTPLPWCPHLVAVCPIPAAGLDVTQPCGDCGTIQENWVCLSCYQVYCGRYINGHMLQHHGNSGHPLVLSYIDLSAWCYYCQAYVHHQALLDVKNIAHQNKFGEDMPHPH
UniProt Q16531: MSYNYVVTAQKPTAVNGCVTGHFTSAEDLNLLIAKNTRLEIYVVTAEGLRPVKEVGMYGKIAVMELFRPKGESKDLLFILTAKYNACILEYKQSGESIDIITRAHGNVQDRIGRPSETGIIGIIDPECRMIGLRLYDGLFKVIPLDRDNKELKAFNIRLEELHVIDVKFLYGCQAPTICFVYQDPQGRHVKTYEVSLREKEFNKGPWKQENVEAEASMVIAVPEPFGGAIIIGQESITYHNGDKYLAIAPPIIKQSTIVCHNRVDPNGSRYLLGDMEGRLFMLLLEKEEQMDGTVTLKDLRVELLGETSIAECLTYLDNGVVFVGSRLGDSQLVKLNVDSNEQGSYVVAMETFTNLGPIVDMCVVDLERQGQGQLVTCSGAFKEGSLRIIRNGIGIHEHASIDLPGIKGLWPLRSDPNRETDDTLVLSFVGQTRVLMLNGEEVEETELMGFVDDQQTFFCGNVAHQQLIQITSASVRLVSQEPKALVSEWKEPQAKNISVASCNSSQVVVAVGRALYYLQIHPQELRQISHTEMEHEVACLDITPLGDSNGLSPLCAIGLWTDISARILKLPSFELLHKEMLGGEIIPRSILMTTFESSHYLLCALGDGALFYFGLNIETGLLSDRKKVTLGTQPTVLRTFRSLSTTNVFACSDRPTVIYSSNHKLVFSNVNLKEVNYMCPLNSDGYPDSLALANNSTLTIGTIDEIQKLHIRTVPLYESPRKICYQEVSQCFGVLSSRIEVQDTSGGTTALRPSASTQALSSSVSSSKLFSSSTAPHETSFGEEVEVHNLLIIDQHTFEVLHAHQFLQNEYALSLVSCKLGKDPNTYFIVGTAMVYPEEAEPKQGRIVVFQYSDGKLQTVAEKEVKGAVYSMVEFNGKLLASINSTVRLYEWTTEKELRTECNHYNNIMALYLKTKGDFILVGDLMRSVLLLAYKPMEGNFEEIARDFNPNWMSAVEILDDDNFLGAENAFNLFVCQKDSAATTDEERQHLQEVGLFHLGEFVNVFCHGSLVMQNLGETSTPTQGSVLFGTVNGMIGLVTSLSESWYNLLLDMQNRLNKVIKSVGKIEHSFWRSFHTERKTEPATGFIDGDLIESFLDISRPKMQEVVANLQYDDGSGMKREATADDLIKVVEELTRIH
UniProt Q13547: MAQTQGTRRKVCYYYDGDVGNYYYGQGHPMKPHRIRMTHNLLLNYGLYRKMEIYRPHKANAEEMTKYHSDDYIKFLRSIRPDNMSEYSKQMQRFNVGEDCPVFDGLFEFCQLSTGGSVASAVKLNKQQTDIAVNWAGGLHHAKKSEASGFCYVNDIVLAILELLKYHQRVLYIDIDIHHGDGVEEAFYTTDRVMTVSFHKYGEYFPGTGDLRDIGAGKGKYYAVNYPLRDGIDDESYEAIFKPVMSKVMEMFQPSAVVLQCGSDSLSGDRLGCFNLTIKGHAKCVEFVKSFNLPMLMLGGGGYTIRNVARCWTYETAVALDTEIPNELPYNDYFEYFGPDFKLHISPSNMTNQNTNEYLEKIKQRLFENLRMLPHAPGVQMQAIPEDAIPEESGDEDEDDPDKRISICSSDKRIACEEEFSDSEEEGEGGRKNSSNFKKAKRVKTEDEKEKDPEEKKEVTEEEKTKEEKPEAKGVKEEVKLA

Key:
[1] = target: FLAG-tagged human 14-3-3ε (human) (UniProt P62258); test: co-IP; anti-FLAG beads on lysates of HCC cells stably expressing FLAG-14-3-3ε, untreated or treated with BLM (20 mU/ml 2 h; 150 mU/ml 4 h); endogenous partners detected by immunoblot
[2] = target: T1, FLAG-tagged human 14-3-3ε (human), P62258; test: as above; conditions: remark: other sources report otherwise
T1 chain: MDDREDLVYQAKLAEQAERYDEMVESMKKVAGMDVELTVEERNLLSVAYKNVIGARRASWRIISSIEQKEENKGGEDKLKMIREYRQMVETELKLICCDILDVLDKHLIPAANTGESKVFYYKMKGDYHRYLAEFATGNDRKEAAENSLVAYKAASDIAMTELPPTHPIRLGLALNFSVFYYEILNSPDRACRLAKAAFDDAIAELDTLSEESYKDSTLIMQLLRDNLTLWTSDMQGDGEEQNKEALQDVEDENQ

[3] = target: FLAG-tagged human 14-3-3ε (human) (UniProt P62258); test: as above; remark: listed apart in the source
[4] = target: FLAG-tagged human 14-3-3ε (human) (UniProt P62258); test: co-IP; HA-tagged TAK1 constructs co-transfected with FLAG-tagged 14-3-3ε into QGY-7703 cells, 48 h, with or without BLM; anti-FLAG beads, immunoblot

## HDAC6 (from UniProt Q9UBN7 1-1215)
[1]
  binding: binds

## Damage-specific DNA binding protein 1 (from UniProt Q16531 1-1140)
[1]
  binding: binds

## HDAC1 (from UniProt Q13547 1-482)
[1]
  binding: binds

B1: 14-3-3ζ, P63104 1-245 (protein)
chain: MDKNELVQKAKLAEQAERYDDMAACMKSVTEQGAELSNEERNLLSVAYKNVVGARRSSWRVVSSIEQKTEGAEKKQQMAREYREKIETELRDICNDVLSLLEKFLIPNASQAESKVFYLKMKGDYYRYLAEVAAGDDKKGIVDQSQQAYQEAFEISKKEMQPTHPIRLGLALNFSVFYYEILNSPEKACSLAKTAFDEAIAELDTLSEESYKDSTLIMQLLRDNLTLWTSDTQGDEAEAGEGGEN
[2]
  binding: binds

B2: NONO (protein, UniProt Q15233 1-471)
chain: MQSNKTFNLEKQNHTPRKHHQHHHQQQHHQQQQQQPPPPPIPANGQQASSQNEGLTIDLKNFRKPGEKTFTQRSRLFVGNLPPDITEEEMRKLFEKYGKAGEVFIHKDKGFGFIRLETRTLAEIAKVELDNMPLRGKQLRVRFACHSASLTVRNLPQYVSNELLEEAFSVFGQVERAVVIVDDRGRPSGKGIVEFSGKPAARKALDRCSEGSFLLTTFPRPVTVEPMDQLDDEEGLPEKLVIKNQQFHKEREQPPRFAQPGSFEYEYAMRWKALIEMEKQQQDQVDRNIKEAREKLEMEMEAARHEHQVMLMRQDLMRRQEELRRMEELHNQEVQKRKQLELRQEEERRRREEEMRRQQEEMMRRQQEGFKGTFPDAREQEIRMGQMAMGGAMGINNRGAMPPAPVPAGTPAPPGPATMMPDGTLGLTPPTTERFGQAATMEGIGAIGGTPPAFNRAAPGAEFAPNKRRRY
[3]
  binding: binds

B3: TAK1 (MAP3K7) (protein, UniProt O43318 1-606)
chain: MSTASAASSSSSSSAGEMIEAPSQVLNFEEIDYKEIEVEEVVGRGAFGVVCKAKWRAKDVAIKQIESESERKAFIVELRQLSRVNHPNIVKLYGACLNPVCLVMEYAEGGSLYNVLHGAEPLPYYTAAHAMSWCLQCSQGVAYLHSMQPKALIHRDLKPPNLLLVAGGTVLKICDFGTACDIQTHMTNNKGSAAWMAPEVFEGSNYSEKCDVFSWGIILWEVITRRKPFDEIGGPAFRIMWAVHNGTRPPLIKNLPKPIESLMTRCWSKDPSQRPSMEEIVKIMTHLMRYFPGADEPLQYPCQYSDEGQSNSATSTGSFMDIASTNTSNKSDTNMEQVPATNDTIKRLESKLLKNQAKQQSESGRLSLGASRGSSVESLPPTSEGKRMSADMSEIEARIAATTAYSKPKRGHRKTASFGNILDVPEIVISGNGQPRRRSIQDLTVTGTEPGQVSSRSSSPSVRMITTSGPTSEKPTRSHPWTPDDSTDTNGSDNSIPMAYLTLDHQLQPLAPCPNSKESMAVFEQHCKMAQEYMKVQTEIALLLQRKQELVAELDQDEKDQQNTSRLVQEHKKLLDENKSLSTYYQQCKKQLEVIRSQQQKRQGTS
[3]
  binding: binds

B4: TAB1 (MAP3K7IP1) (protein, UniProt Q15750 1-504)
chain: MAAQRRSLLQSEQQPSWTDDLPLCHLSGVGSASNRSYSADGKGTESHPPEDSWLKFRSENNCFLYGVFNGYDGNRVTNFVAQRLSAELLLGQLNAEHAEADVRRVLLQAFDVVERSFLESIDDALAEKASLQSQLPEGVPQHQLPPQYQKILERLKTLEREISGGAMAVVAVLLNNKLYVANVGTNRALLCKSTVDGLQVTQLNVDHTTENEDELFRLSQLGLDAGKIKQVGIICGQESTRRIGDYKVKYGYTDIDLLSAAKSKPIIAEPEIHGAQPLDGVTGFLVLMSEGLYKALEAAHGPGQANQEIAAMIDTEFAKQTSLDAVAQAVVDRVKRIHSDTFASGGERARFCPRHEDMTLLVRNFGYPLGEMSQPTPSPAPAAGGRVYPVSVPYSSAQSTSKTSVTLSLVMPSQGQMVNGAHSASTLDEATPTLTNQSPTLTLQSTNTHTQSSSSSSDGGLFRSRPAHSLPPGEDGRVEPYVDFAEFYRLWSVDHGEQSVVTAP
[3]
  binding: binds

B5: HA-tagged full-length TAK1 (protein, UniProt O43318-2 1-579)
chain: MSTASAASSSSSSSAGEMIEAPSQVLNFEEIDYKEIEVEEVVGRGAFGVVCKAKWRAKDVAIKQIESESERKAFIVELRQLSRVNHPNIVKLYGACLNPVCLVMEYAEGGSLYNVLHGAEPLPYYTAAHAMSWCLQCSQGVAYLHSMQPKALIHRDLKPPNLLLVAGGTVLKICDFGTACDIQTHMTNNKGSAAWMAPEVFEGSNYSEKCDVFSWGIILWEVITRRKPFDEIGGPAFRIMWAVHNGTRPPLIKNLPKPIESLMTRCWSKDPSQRPSMEEIVKIMTHLMRYFPGADEPLQYPCQYSDEGQSNSATSTGSFMDIASTNTSNKSDTNMEQVPATNDTIKRLESKLLKNQAKQQSESGRLSLGASRGSSVESLPPTSEGKRMSADMSEIEARIAATTGNGQPRRRSIQDLTVTGTEPGQVSSRSSSPSVRMITTSGPTSEKPTRSHPWTPDDSTDTNGSDNSIPMAYLTLDHQLQPLAPCPNSKESMAVFEQHCKMAQEYMKVQTEIALLLQRKQELVAELDQDEKDQQNTSRLVQEHKKLLDENKSLSTYYQQCKKQLEVIRSQQQKRQGTS
[4]
  binding: binds

B6: HA-tagged TAK1-N (kinase domain, 1-300AA) (domain or fragment, UniProt O43318-2 1-300)
chain: MSTASAASSSSSSSAGEMIEAPSQVLNFEEIDYKEIEVEEVVGRGAFGVVCKAKWRAKDVAIKQIESESERKAFIVELRQLSRVNHPNIVKLYGACLNPVCLVMEYAEGGSLYNVLHGAEPLPYYTAAHAMSWCLQCSQGVAYLHSMQPKALIHRDLKPPNLLLVAGGTVLKICDFGTACDIQTHMTNNKGSAAWMAPEVFEGSNYSEKCDVFSWGIILWEVITRRKPFDEIGGPAFRIMWAVHNGTRPPLIKNLPKPIESLMTRCWSKDPSQRPSMEEIVKIMTHLMRYFPGADEPLQY
[4]
  binding: binds

B7: HA-tagged TAK1 S412A (protein, UniProt O43318-2 1-579)
chain: MSTASAASSSSSSSAGEMIEAPSQVLNFEEIDYKEIEVEEVVGRGAFGVVCKAKWRAKDVAIKQIESESERKAFIVELRQLSRVNHPNIVKLYGACLNPVCLVMEYAEGGSLYNVLHGAEPLPYYTAAHAMSWCLQCSQGVAYLHSMQPKALIHRDLKPPNLLLVAGGTVLKICDFGTACDIQTHMTNNKGSAAWMAPEVFEGSNYSEKCDVFSWGIILWEVITRRKPFDEIGGPAFRIMWAVHNGTRPPLIKNLPKPIESLMTRCWSKDPSQRPSMEEIVKIMTHLMRYFPGADEPLQYPCQYSDEGQSNSATSTGSFMDIASTNTSNKSDTNMEQVPATNDTIKRLESKLLKNQAKQQSESGRLSLGASRGSSVESLPPTSEGKRMSADMSEIEARIAATTGNGQPRRRAIQDLTVTGTEPGQVSSRSSSPSVRMITTSGPTSEKPTRSHPWTPDDSTDTNGSDNSIPMAYLTLDHQLQPLAPCPNSKESMAVFEQHCKMAQEYMKVQTEIALLLQRKQELVAELDQDEKDQQNTSRLVQEHKKLLDENKSLSTYYQQCKKQLEVIRSQQQKRQGTS
[4]
  binding: binds

B8: HA-tagged TAK1 S432A (protein, UniProt O43318-2 1-579)
chain: MSTASAASSSSSSSAGEMIEAPSQVLNFEEIDYKEIEVEEVVGRGAFGVVCKAKWRAKDVAIKQIESESERKAFIVELRQLSRVNHPNIVKLYGACLNPVCLVMEYAEGGSLYNVLHGAEPLPYYTAAHAMSWCLQCSQGVAYLHSMQPKALIHRDLKPPNLLLVAGGTVLKICDFGTACDIQTHMTNNKGSAAWMAPEVFEGSNYSEKCDVFSWGIILWEVITRRKPFDEIGGPAFRIMWAVHNGTRPPLIKNLPKPIESLMTRCWSKDPSQRPSMEEIVKIMTHLMRYFPGADEPLQYPCQYSDEGQSNSATSTGSFMDIASTNTSNKSDTNMEQVPATNDTIKRLESKLLKNQAKQQSESGRLSLGASRGSSVESLPPTSEGKRMSADMSEIEARIAATTGNGQPRRRSIQDLTVTGTEPGQVSSRSSAPSVRMITTSGPTSEKPTRSHPWTPDDSTDTNGSDNSIPMAYLTLDHQLQPLAPCPNSKESMAVFEQHCKMAQEYMKVQTEIALLLQRKQELVAELDQDEKDQQNTSRLVQEHKKLLDENKSLSTYYQQCKKQLEVIRSQQQKRQGTS
[4]
  binding: binds

B9: HA-tagged TAK1 S268A (protein, UniProt O43318-2 1-579)
chain: MSTASAASSSSSSSAGEMIEAPSQVLNFEEIDYKEIEVEEVVGRGAFGVVCKAKWRAKDVAIKQIESESERKAFIVELRQLSRVNHPNIVKLYGACLNPVCLVMEYAEGGSLYNVLHGAEPLPYYTAAHAMSWCLQCSQGVAYLHSMQPKALIHRDLKPPNLLLVAGGTVLKICDFGTACDIQTHMTNNKGSAAWMAPEVFEGSNYSEKCDVFSWGIILWEVITRRKPFDEIGGPAFRIMWAVHNGTRPPLIKNLPKPIESLMTRCWAKDPSQRPSMEEIVKIMTHLMRYFPGADEPLQYPCQYSDEGQSNSATSTGSFMDIASTNTSNKSDTNMEQVPATNDTIKRLESKLLKNQAKQQSESGRLSLGASRGSSVESLPPTSEGKRMSADMSEIEARIAATTGNGQPRRRSIQDLTVTGTEPGQVSSRSSSPSVRMITTSGPTSEKPTRSHPWTPDDSTDTNGSDNSIPMAYLTLDHQLQPLAPCPNSKESMAVFEQHCKMAQEYMKVQTEIALLLQRKQELVAELDQDEKDQQNTSRLVQEHKKLLDENKSLSTYYQQCKKQLEVIRSQQQKRQGTS
[4]
  binding: no binding
